Test results as given in the supplement of paper PMC3334620.
The full ranking holds about 33,000 sequences; the median of “E-score (-0.5 to 0.5)” is about -0.016, and the highest 2% start at about 0.32. Some of the results follow.

biological target: T1, Stp1 (UniProt B3LFK1); test: PBM E-score (8-mer binding enrichment) (E-score (-0.5 to 0.5)); higher = stronger / more preferred TF binding; most listed sequences are background and not binding sites; settings: protein concentration: 200 nM; construct: GST-full length
T1 sequence: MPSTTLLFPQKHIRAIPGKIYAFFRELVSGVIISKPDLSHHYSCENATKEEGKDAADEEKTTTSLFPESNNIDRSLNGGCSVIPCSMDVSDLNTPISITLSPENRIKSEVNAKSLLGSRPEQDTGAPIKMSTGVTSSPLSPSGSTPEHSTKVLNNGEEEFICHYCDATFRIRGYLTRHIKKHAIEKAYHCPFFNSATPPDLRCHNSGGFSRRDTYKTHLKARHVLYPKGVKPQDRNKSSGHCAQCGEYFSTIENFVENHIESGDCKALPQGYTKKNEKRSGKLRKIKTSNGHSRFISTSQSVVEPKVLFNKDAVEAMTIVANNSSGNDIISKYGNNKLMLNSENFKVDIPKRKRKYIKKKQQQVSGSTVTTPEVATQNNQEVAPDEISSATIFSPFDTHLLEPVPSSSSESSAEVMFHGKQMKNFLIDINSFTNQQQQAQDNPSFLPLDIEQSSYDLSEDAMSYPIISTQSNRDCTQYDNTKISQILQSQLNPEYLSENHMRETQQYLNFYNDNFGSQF
Method in brief: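 Universal all-10-mer Agilent arrays, double-stranded by primer extension on fresh or once-stripped slides, were probed with about 100-200 nM GST-tagged yeast transcription factors made by PURExpress. Fluorescent anti-GST detected bound protein, and masliner normalised the scans. E-scores from the Universal PBM Analysis Suite were given to each ungapped eight-base word pooled with its reverse complement.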

| Sequence | PBM E-score |
| --- | --- |
| CAAACCTG | -0.00919 |
| GGAGAACA | -0.065 |
| CTAGCAAG | -0.0668 |
| GAAGGAGA | -0.155 |
| ATAACTGG | -0.103 |
| AAATCCAA | 0.0749 |
| CAGAGAGA | -0.235 |
| CAGGGTCA | -0.33 |
| CACGTATC | 0.106 |
| CTGAGCGA | 0.0209 |
| AGGGCGCA | 0.205 |
| GAGGCCTA | -0.162 |
| ATGGAGGA | 0.032 |
| ACAATCCG | -0.0493 |
| GGTAAAAC | -0.0626 |
| CGGTTTCA | -0.0573 |
| CCTTGTGA | 0.134 |
| CGCTGCCC | -0.102 |
| CACAACGA | 0.107 |
| CAAGGTGG | -0.152 |
| AATTATTC | 0.135 |
| CGGGGTAG | -0.281 |
| CAGTGCCG | 0.453 |
| GCAGATTA | 0.0459 |
| AAATCGCA | 0.0877 |

| Sequence | PBM E-score |
| --- | --- |
| AGCTAAGG | -0.145 |
| ACCACCAC | -0.225 |
| AGAAATTC | 0.0496 |
| AGTCTGAA | -0.0532 |
| ACGCCTTG | 0.348 |
| ATAGTCTC | 0.157 |
| AAAACAGT | 0.173 |
| ACAGCCCG | -0.3 |
| AGTACGGA | 0.154 |
| ACTCAGAC | 0.0225 |
| AAAGCTTT | 0.0507 |
| AATCTCTG | -0.0845 |
| CAATAAAA | 0.106 |
| CCGGCTGC | 0.0166 |
| CTGATGGA | -0.133 |
| AGAGAGAA | -0.198 |
| AAAAGGCC | 0.174 |
| AACTCCGA | -0.201 |
| ACTAACAG | 0.0277 |
| AGTGTTAA | 0.0806 |
| CCAATTAA | -0.0018 |
| AAAAACGG | 0.217 |
| GAGTCAGA | -0.0166 |
| AGAGGAAA | 0.0686 |
| CTGTAGAA | -0.00291 |

| Sequence | PBM E-score |
| --- | --- |
| ACTGAGCC | 0.081 |
| AGGACAAT | 0.0496 |
| ATGCATTA | 0.00806 |
| GATAGCAA | 0.0965 |
| CCGTTATA | -0.00614 |
| ACACAGAG | -0.0898 |
| AAGGCGGC | 0.319 |
| AGGGCAAT | 0.156 |
| CCAGTATC | -0.22 |
| AAGGAAAA | 0.142 |
| GAGTGTAA | -0.192 |
| GAGCTCGC | -0.0438 |
| AGGGAACC | -0.0405 |
| CGATCCTA | -0.163 |
| ACAACGCG | 0.106 |
| CCCGTGCG | 0.332 |
| GGCTAGCA | -0.097 |
| ACCAGATC | -0.0588 |
| ATAATCAT | 0.246 |
| CATGACCA | -0.117 |
| CTATGCGA | -0.258 |
| CCTTGAGA | -0.271 |
| AACTTAAT | 0.111 |
| ACATAGTA | 0.166 |
| AACATATG | 0.0378 |

| Sequence | PBM E-score |
| --- | --- |
| AGGGTAAA | -0.0518 |
| CCAATCAA | 0.049 |
| GGTGTCGA | -0.249 |
| CTGAGGAC | -0.184 |
| ACATCTGC | -0.0829 |
| ATCGAACG | 0.141 |
| AAATATGA | 0.0754 |
| ATGACGCC | 0.2 |
| ACCTACCT | -0.185 |
| AAGCACCC | -0.224 |
| CACGGTTC | -0.0181 |
| CCGAATTA | -0.0683 |
| GAATGGGA | -0.228 |
| ATATCTTC | 0.102 |
| CTTGCCCC | -0.165 |
| GATCGTCC | -0.0918 |
| ACTACGTC | -0.116 |
| GCGCAGTA | 0.0213 |
| AGAACAGG | -0.0511 |
| CATAATCC | -0.155 |
| TTGTTAAA | -0.116 |
| TACGAACA | 0.159 |
| CAAATTGA | -0.13 |
| AAGGTGAG | -0.0213 |
| AAGCCTCT | -0.236 |

| Sequence | PBM E-score |
| --- | --- |
| AAGCTGCA | 0.0151 |
| ACGCTAGT | -0.139 |
| CGGTGGCC | -0.0772 |
| CGGCAGGA | 0.0983 |
| GAGGCTAA | 0.101 |
| AAAAACTG | -0.166 |
| CCCGCAAC | 0.097 |
| TAGATGAA | 0.123 |
| CGGAAGAA | -0.0809 |
| GCCCTTGA | 0.0731 |
| CTACTGCC | 0.0523 |
| CAACCTCA | -0.103 |
| CAGCATAC | -0.0173 |
| CCCCACTA | -0.185 |
| AGACGCGG | 0.247 |
| GAGGTGCC | 0.233 |
| GGGAATGA | 0.0222 |
| TACGACTA | -0.00785 |
| ATCTATTG | 0.0947 |
| GCCACTTA | 0.104 |
| ACGGGCTC | -0.225 |
| GAACCGTC | -0.11 |
| AGGCACAA | 0.288 |
| AGAGATCT | -0.0664 |
| ACGGTTCA | -0.228 |

| Sequence | PBM E-score |
| --- | --- |
| GAGTTACC | -0.0876 |
| GCGCGACA | 0.225 |
| GCACCAAC | 0.114 |
| CAGAGCTC | -0.308 |
| CCTGCGTC | -0.316 |
| CCGGAGCG | -0.0294 |
| AACAAACA | 0.161 |
| GCCAACGA | 0.0454 |
| AAATTTAG | 0.142 |
| CAACGGGC | 0.112 |
| ACAAGTTG | -0.014 |
| GACGGTCC | -0.26 |
| GATGTTCA | -0.0819 |
| AAACGGAG | 0.18 |
| CAACTTAG | 0.13 |
| GATTGTAA | 0.0589 |
| ACGACGAG | -0.191 |
| AAGCTATT | -0.0687 |
| CTGTTATA | 0.125 |
| TGCATCCA | -0.0335 |
| TCAGGGCA | 0.0232 |
| ACTACGCT | -0.192 |
| GCACACCC | -0.179 |
| CTACGCCA | 0.00095 |
| CCGAAGTC | -0.0338 |

| Sequence | PBM E-score |
| --- | --- |
| ATGGGCGC | 0.134 |
| GGTAAGCA | -0.0428 |
| ACGGGTTG | -0.0319 |
| ATTAGAAC | 0.0669 |
| ACATGAGA | 0.00086 |
| AAACCCCT | -0.284 |
| AGCACGCA | -0.127 |
| TCTGTTAA | 0.044 |
| GACTAAGC | -0.025 |
| GCCTTGCC | 0.316 |
| CAGCTACA | -0.0624 |
| GAGTATAC | -0.0177 |
| GTGCCCAA | 0.193 |
| ACGGTCTG | -0.152 |
| CAATACGA | 0.143 |
| AATCTGAG | -0.0755 |
| CTTTAAAA | 0.0455 |
| ATTGCAAA | 0.0783 |
| ACCATTCG | -0.00559 |
| CGTAAGTC | -0.066 |
| CAATCAGG | 0.105 |
| TATGACAA | 0.0978 |
